Reference: PubChem BioAssay AID651820 (National Center for Advancing Translational Sciences (NCATS), 2012)
Values joined by “and” are separate entries in the source; they are usually repeats but may differ in a detail not shown here. Equal entries are not always repeated. About 12,000 (3.5%) of roughly 340,000 compounds were called active. The shares of active, inactive and inconclusive entries below differ from those in the screen. The call rests on the fitted dose curve; in most records, active means well fitted inhibition curve with a large enough effect; inconclusive means small, poorly fitted or top-dose-only effect, or another doubt; inactive means no such curve, though single readings can be large or run the other way. Potencies beside an inconclusive call are fits to weak or partial responses and may not hold up.

assay: qHTS Assay for Inhibitors of Hepatitis C Virus (HCV); conditions: Huh7.5.1 HCVcc-Cre (HCVcc is cell-culture hepatitis C virus) infection, luciferase reporter, 44 h; activity change, negative = inhibition: at 41.8 µM (top of the series) unless noted
In short: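 Compounds are dispensed onto cells plated 4 h earlier at 1,000 per well, with HCVcc-Cre virus (about 0.5 moi) added next. Following 44 h of culture, luminescent signal is measured for 15 sec after 15 min with substrate at room temperature.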
On the % scale 0 is the no-effect control and ±100 the full control effect; potency means the concentration at half of the fitted maximal effect; tags describe the fitted curve by direction and shape.

| Compound | Potency | activity change, negative = inhibition |
| --- | --- | --- |
| Cc1cc(CNC(=O)COc2ccc(C#N)cc2)c2ccccc2n1 | inconclusive: 12.6 µM [inhibitor, single point] | – |
| CCCCOc1ccc(C(C)NC(=O)C2CCCN(S(=O)(=O)CCC)C2)cc1 (stereo unspecified) | inconclusive: 14.1 µM [inhibitor, partial curve] | – |
| O=C(Cn1cc([N+](=O)[O-])cn1)NC1CCCCCC1 | – | inactive: 18.8% |
| CCOC(=O)N1CCC(N2CCN(S(=O)(=O)c3ccc([N+](=O)[O-])cc3)CC2)CC1 | inconclusive: 31.6 µM [inhibitor, single point] | – |
| O=C(Nc1sc2c(c1C(=O)NCc1ccco1)CCCC2)c1ccc2c(c1)OCO2 | inconclusive: 8.91 µM [inhibitor, partial curve, poor fit] | – |
| O=C(C1CCC(CNS(=O)(=O)c2cccc3cccnc23)CC1)N1CCCC1 (stereo unspecified) | inactive | – |
| CCCCn1c(N)c(N(CC)C(=O)C2=NN(c3ccccc3)C(=O)CC2)c(=O)[nH]c1=O | – | inactive: -5.59% |
| CC(C)CC(=O)/C(=C\c1ccc(Cl)cc1Cl)n1cncn1 | inconclusive: 22.4 µM [inhibitor, single point] | – |
| COCCN(C(=O)Cc1cccs1)c1nnc(-c2ccncc2)s1 | – | inactive: -2.17% |
| CCCCN(CCCC)CCNC(=O)c1cn(CC)c2ccc(S(=O)(=O)N(C)C3CCCCC3)cc2c1=O | inconclusive: 3.55 µM [inhibitor, single point] | – |
| COc1ccc(OCCN2CCN(C(=O)c3ccc(OC)cc3)CC2)cc1 | active: 10 µM | – |
| CCc1nc(Nc2ccc(F)cc2)c2oc3ccccc3c2n1 | active: 10 µM | – |
| O=C(Nc1ccc(Cl)cc1)Nc1ccc2c(c1)N1CCN=C1S2 | active: 10 µM | – |
| COc1ccc(NC(=O)CN(C)C(=O)c2csc3c2CCCC3)cc1 | – | inactive: -10.3% |
| O=C(COC(=O)c1ccc([N+](=O)[O-])cc1Cl)Nc1cccnc1Cl | – | inactive: -3.97% |
| CCCCOc1ccc(C(=O)C(CN2CCOCC2)c2ccccc2)cc1 (stereo unspecified) | inconclusive: 11.2 µM [inhibitor, partial curve] | – |
| COC(=O)c1c(NC(=O)CN2CCC3(O)CCCCC3C2c2ccc(F)cc2)sc(C)c1C (stereo unspecified) | inconclusive: 31.6 µM [inhibitor, single point] | – |
| O=C(CN1CCN(S(=O)(=O)c2ccc(Br)cc2)CC1)N/N=C/c1ccc(Cl)c([N+](=O)[O-])c1 | active: 11.2 µM | – |
| CC(/C=N/NC(=O)c1n[nH]c2c1CCC2)=C\c1ccccc1 | inconclusive: 0.562 µM [inhibitor, full curve, poor fit] | – |
| CC(=O)c1ccc(NC(=S)Nc2ccc3cn[nH]c3c2)cc1 | – | inactive: 0.0475% |
| CCC(=O)NC(c1ccco1)c1cc(Cl)c2cccnc2c1O (stereo unspecified) | active: 6.31 µM | – |
| Cn1c(SCCOc2ccc(Cl)cc2)nnc1-c1ccncc1 | inconclusive: 31.6 µM [inhibitor, single point] | – |
| CCOC(=O)c1sc2nc(SC)nc(-c3ccccc3)c2c1N | – | inactive: -1.48% |

| Compound | Potency | activity change, negative = inhibition |
| --- | --- | --- |
| CC(C)n1c(-c2cccs2)nc2ccccc21 | inconclusive: 31.6 µM [inhibitor, single point] | – |
| COc1ccc(CCNC(=O)COC(=O)/C=C/c2ccc(OCC#N)c(OC)c2)cc1OC | inconclusive: 11.2 µM [inhibitor, partial curve] | – |
| CC(C)(C)c1cc(Cl)ccc1OCCOCCN1CCCC1 | inconclusive: 0.501 µM [inhibitor, full curve, poor fit] | – |
| CCOc1ccc(C(C)NC(=S)NC2CCCCC2)cc1OCC (stereo unspecified) | inconclusive: 25.1 µM [inhibitor, single point] | – |
| COc1ccc(C2=NS(=O)(=O)N(C)C(C(=O)Nc3ccc(OC)c(OC)c3)=C2)cc1 | inconclusive: 31.6 µM [inhibitor, single point] | – |
| COc1ccccc1NC(=S)NC(C)C(c1cccs1)N1CCOCC1 (stereo unspecified) | inconclusive: 22.4 µM [inhibitor, single point] | – |
| CC(C)Oc1nc(-c2ccccc2O)nc2ccccc12 | active: 12.6 µM | – |
| CN(C)S(=O)(=O)c1cccc(NC(=S)NNC(=O)c2cc3ccccc3cc2O)c1 | inconclusive: 1.78 µM [inhibitor, full curve] | – |
| Cc1nc2ccccc2nc1OCc1cccc([N+](=O)[O-])c1 | – | inactive: -8.98% |
| CCOC(=O)c1ccc(NC(=O)CSc2nnc(COc3ccccc3OC)n2C)cc1 | inconclusive: 6.31 µM [inhibitor, partial curve] | – |
| CN1CCN(c2ccc(NC(=O)COc3ccccc3Cl)cc2)CC1 | inconclusive: 12.6 µM [inhibitor, partial curve] | – |
| Cc1ccc(C)c(S(=O)(=O)N2CCN(C(=O)c3ccccc3Cc3ccccc3)CC2)c1 | – | inconclusive: -70.2% [inhibitor] |
| Cc1cc(=O)[nH]c(-c2cccs2)n1 | – | inactive: 24.5% |
| Cc1ccc(-n2nc3ccc(NC(=O)c4ccc5c(c4)OCO5)cc3n2)cc1 | – | inactive: -3% |
| COc1ccc(/C(C)=N/N=C(\C)c2ccc(OC)cc2OC)c(OC)c1 | inconclusive: 20 µM [inhibitor, single point] | – |
| O=C(Nc1ccc(S(=O)(=O)N2CCCC2)cc1)c1ccc(Cl)nc1 | inconclusive: 31.6 µM [inhibitor, partial curve, poor fit] | – |
| CC(NC(=O)[C@H](NC(=O)[C@@H]1Cc2ccccc2CN1)c1ccccc1)c1ccccc1 (stereo partly specified) | – | inactive: -59.8% |
| CC(C)N(C(=O)CSc1nnc(-c2cc3ccccc3cc2O)n1Cc1ccco1)C(C)C | inconclusive: 6.31 µM [inhibitor, partial curve] and inconclusive: 5.62 µM [inhibitor, partial curve] | – |
| COc1ccc(-c2nnn(CC(=O)N(Cc3ccccc3Cl)C(C(=O)NCC3CCCO3)c3ccco3)n2)cc1OC (stereo unspecified) | inconclusive: 2.51 µM [inhibitor, full curve] | – |
| COc1ccc(Cc2nnc(SCC(=O)c3ccc4c(c3)NC(=O)CO4)o2)cc1 | – | inactive: -9.76% |
| O=C(Nc1c(F)cc(F)cc1Br)c1cc(-c2ccco2)on1 | inconclusive: 31.6 µM [inhibitor, single point] | – |
| COc1ccc(C2(O)CCN(C(=O)c3ccc4c(c3)OCO4)CC2)cc1 | – | inactive: 16.3% |
| COc1cc(NC(=O)c2ccccc2)c(OC)cc1NC(=O)CN1C(=O)NC2(CCCCC2C)C1=O (stereo unspecified) | inconclusive: 31.6 µM [inhibitor, single point] | – |
